We go through one molecule from article PMC13113215, “Multiple ETS family transcription factors bind mutant p53 via distinct interaction regions” (Febs Letters, 2025).

The target of this test is T1, ETV5 (human, UniProt P41161 1-510).
T1 construct: ETV5, human ETS family transcription factor, full-length; also called His-ETS protein; source: E. coli BL21 pRIL, purified (Ni-NTA agarose); not shown: 6xHis, N-terminal, kept
Put plainly: pull-down; purified ETS protein covalently fused to NHS-activated agarose beads, incubated with equal amounts of purified p53; wash with NP-40 lysis buffer (50 mM Tris/HCl pH 7.4, 250 mM NaCl, 5 mM EDTA, 10 mM NaF, 1% Nonidet P-40); p53 detected by immunoblot. Conditions: both partners purified. Background: A western blot detects proteins with antibodies after separation by electrophoresis.

Chain of ETV5 (P41161 whole entry, the tested form may be a part): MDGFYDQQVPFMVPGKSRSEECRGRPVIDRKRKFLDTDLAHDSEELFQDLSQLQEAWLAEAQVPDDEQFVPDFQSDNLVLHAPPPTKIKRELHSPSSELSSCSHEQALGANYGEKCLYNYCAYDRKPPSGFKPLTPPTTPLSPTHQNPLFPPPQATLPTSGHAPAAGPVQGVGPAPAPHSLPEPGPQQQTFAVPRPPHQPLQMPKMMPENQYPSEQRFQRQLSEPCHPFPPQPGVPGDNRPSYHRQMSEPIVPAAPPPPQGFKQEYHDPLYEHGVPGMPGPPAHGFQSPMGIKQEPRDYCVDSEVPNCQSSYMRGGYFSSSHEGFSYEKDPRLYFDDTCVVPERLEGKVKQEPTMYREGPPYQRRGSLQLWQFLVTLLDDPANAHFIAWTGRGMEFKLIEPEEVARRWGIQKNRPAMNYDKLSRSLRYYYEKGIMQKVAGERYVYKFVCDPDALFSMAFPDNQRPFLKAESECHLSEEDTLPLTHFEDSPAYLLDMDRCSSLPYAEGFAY

B1: p53 T81E (phosphomimic mutant of p53) (natural protein)
chain: not shown
notes: p53 (TP53 product) with the phosphomimetic mutation T81E; also called T81 phosphomimetic p53 mutation; phosphomimetic T81E p53; source: E. coli Rosetta, purified (Ni NTA column; His-tag removed with thrombin-agarose)
Consider B1, for which the binding result was “binds”.
